Source: PubChem BioAssay AID1347428 (National Center for Advancing Translational Sciences (NCATS), 2020)
The campaign covered roughly 91,000 compounds. About 290 (0.32%) were called active. The shares of active, inactive and inconclusive entries below differ from those in the screen. Calls come from the whole dose curve; as a rule, active = well fitted inhibition curve with a large enough effect; inconclusive = small, poorly fitted or top-dose-only effect; inactive = no such curve, though single readings can be large or run the other way. Potencies of inconclusive entries are doubtful fits and often do not repeat.

Molecular target: Single-stranded DNA cytosine deaminase (Homo sapiens) (UniProt Q9GZX7)
Experiment: Primary qHTS assay for inhibitors of Activation Induced Cytidine Deaminase (AID): AID signal; note: nearly all actives have a fitted effect of over 25% in size
Details: AID deamination FRET fluorescence, UDG-coupled, 4 h; activity change, negative = inhibition: at 115 µM (top of the series)
% is set by controls: 0 for no effect and ±100 for the full control effect; potency is the fitted concentration of half-maximal effect; tags give direction and shape of the fitted curve.

Chain of UniProt Q9GZX7 (Q9GZX7 whole entry, looked up): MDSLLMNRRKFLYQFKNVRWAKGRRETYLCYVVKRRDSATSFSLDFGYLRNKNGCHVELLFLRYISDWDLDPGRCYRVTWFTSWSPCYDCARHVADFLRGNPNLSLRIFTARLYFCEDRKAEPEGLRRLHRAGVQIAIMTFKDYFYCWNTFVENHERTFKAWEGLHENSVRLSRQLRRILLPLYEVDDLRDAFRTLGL

SMILES	activity change, negative = inhibition	Potency
NCC1CCN(CCO)C1 (centres undefined)	inactive: 8.42%	
COc1ccc(/C=C/C(=O)OCc2cc(=O)oc3cc(C)ccc23)cc1	inactive: 2.89%	
CCc1nn(C(C)C(=O)N2CCN(c3cccc(C(F)(F)F)c3)CC2)c(=O)c2cc3occc3n12 (centres undefined)		active: 31.6 µM
COc1cc(/C=C/c2nc(C#N)c(N(C)C)o2)cc(OC)c1OC	inactive: -3.68%	
CCCCn1cc2c(c1-c1ccccc1Br)c(=O)n(C)c(=O)n2C		inconclusive: 70.8 µM [inhibitor, single point]
CCOc1ccc(NC(=O)CCC(=O)N2CC(C)Oc3ccc(C)cc32)cc1 (centres undefined)		inconclusive: 7.94 µM [inhibitor, full curve, poor fit]
O=C(CCC(=O)N1CC2CCCN2c2ccccc21)NCc1cccc(Cl)c1 (centres undefined)		inconclusive: 11.2 µM [inhibitor, full curve, poor fit]
CCCn1ccc2c(OCC(=O)Nc3cc(C)ccc3C)cccc2c1=O		inconclusive: 89.1 µM [inhibitor, single point]
COC(=O)CC1Oc2ccccc2-n2cc(-c3ccc(C)cc3)nc21 (centres undefined)	inactive: -3.96%	
CCc1ccc2c(c1)c(=O)c(S(=O)(=O)c1ccc(Cl)cc1)cn2CC		inconclusive: 39.8 µM [inhibitor, partial curve, poor fit]
Cc1nn(Cc2ccc(Cl)c(Cl)c2)c(C)c1NC(=O)c1noc2c1CCc1ccccc1-2		inconclusive: 50.1 µM [inhibitor, partial curve, poor fit]
CSc1ccc(CNC(=O)C2CCCN(S(=O)(=O)N(C)c3ccc(F)cc3)C2)cc1 (centres undefined)		inconclusive: 15.8 µM [inhibitor, full curve, poor fit]
COc1ccc(-c2nc3ccccc3n3c(-c4cccc(C)c4)c4c(=O)n(C)c(=O)n(C)c4c23)cc1		inconclusive: 28.2 µM [inhibitor, single point]
Cc1ccc(-n2ncc(C(=O)NCCc3ccccc3)c2C2CCN(C(=O)OC(C)(C)C)CC2)c(C)c1		active: 25.1 µM
CCc1cccc(-n2c(=O)c3cccnc3n2CC(=O)NCc2ccccc2)c1		inconclusive: 20 µM [inhibitor, full curve, poor fit]
COc1cc(C(=O)OCc2cc(=O)n3nc(C4CCCCC4)sc3n2)cc(OC)c1OC		inconclusive: 25.1 µM [inhibitor, partial curve, poor fit]
CCOc1ccccc1CNc1ccc2cc(S(=O)(=O)N3CCC(C)CC3)ccc2n1		inconclusive: 22.4 µM [inhibitor, partial curve, poor fit]
COc1cccc(CN2CCCCC2)c1OC	inactive: -5.68%	
CC(=O)N1CCc2nc3sc(C(=O)c4ccc(F)cc4)c(N)c3c(C(F)(F)F)c2C1		inconclusive: 15.8 µM [inhibitor, full curve]
Cc1ccc(OCC(=O)Nc2nnc(S(=O)(=O)N3c4ccccc4CC3C)s2)cc1 (centres undefined)		inconclusive: 28.2 µM [inhibitor, single point]
Cc1ccc(Cl)cc1NC(=O)Nc1nnc(N(C)Cc2ccccc2)s1	inactive: -18.4%	
CCCCn1cc(S(=O)(=O)c2ccc(OC)cc2)c(=O)c2cc(CC)ccc21		inconclusive: 25.1 µM [inhibitor, partial curve, poor fit]

SMILES	activity change, negative = inhibition	Potency
CCOC(=O)c1cnc2ccc(C(=O)OC)cc2c1Nc1ccc(OCC)cc1	inactive: -5.97%	
Cc1ccc(C(=O)CSc2nc(-c3ccccc3)nc3c2CCCC3)c(C)c1		inconclusive: 70.8 µM [inhibitor, partial curve, poor fit]
CCC1CN(C(=O)N2CCC(C(=O)NCCc3ccccc3Cl)CC2)c2cc(C)ccc2O1 (centres undefined)		inconclusive: 50.1 µM [inhibitor, partial curve, poor fit]
Cc1ccc(C)c(NC(=O)c2cc(S(=O)(=O)N3CCCc4ccccc43)ccc2F)c1		inconclusive: 39.8 µM [inhibitor, partial curve, poor fit]
Cc1cc(C)c(OCC(=O)N(Cc2ccco2)Cc2ccco2)c(C)c1		active: 44.7 µM
Cc1cc2c(C(C)C)c(O)c(O)c(C=O)c2c(O)c1-c1c(C)cc2c(C(C)C)c(O)c(O)c(C=O)c2c1O		active: 79.4 µM
CCOc1ccc(-c2ncnn2-c2sc3c(c2C#N)CCCCC3)cc1		inconclusive: 12.6 µM [inhibitor, partial curve, poor fit]
CCOC(=O)C1=C(C)NC(=O)NC1c1cn(-c2ccccc2)nc1-c1ccc(OCC)cc1 (centres undefined)		inconclusive: 44.7 µM [inhibitor, partial curve, poor fit]
O=c1c2ccccc2c(-c2ccc(Cl)cc2)nn1-c1cc(N2CCNCC2)ccc1[N+](=O)[O-]		inconclusive: 56.2 µM [inhibitor, partial curve, poor fit]
CCOc1ccc2nc(N3CCCC(C(=O)Nc4ccc(OC)c(Cl)c4)C3)sc2c1 (centres undefined)		inconclusive: 100 µM [inhibitor, partial curve, poor fit]
N#Cc1cccc(C(=O)NCCc2cccs2)c1	inactive: 0.398%	
Cc1nc2cc(C(=O)NC3CCCCCC3)ccc2n1-c1ccc(Br)cc1		inconclusive: 39.8 µM [inhibitor, single point]
Fc1ccc(Nc2nc(SCc3ccccc3F)nc3ccccc23)cc1		inconclusive: 39.8 µM [inhibitor, partial curve, poor fit]
COc1ccc(CCNC(=O)c2oc(=O)c3ccccc3c2-c2ccccc2)cc1OC		inconclusive: 35.5 µM [inhibitor, full curve]
COc1cc(CCNC(=O)c2ccc3c(c2)c(C)c(C)n3Cc2cccc(C)c2)cc(OC)c1OC		inconclusive: 35.5 µM [inhibitor, full curve, poor fit]
O=C(CCn1ccc2cc(S(=O)(=O)N3CCCC3)ccc21)NCc1cccc(Cl)c1		inconclusive: 44.7 µM [inhibitor, partial curve]
CCN(CC)C(=O)CSc1n[nH]c(=O)c2cc(-c3ccc(OC)c(OC)c3)nn12	inactive: 0.0297%	
O=C(Nc1cccc(C(=O)N2CCN(c3cccc(Cl)c3)CC2)c1)c1nsc2ccccc12		inconclusive: 25.1 µM [inhibitor, full curve, poor fit]
O=S(=O)(O)CC(S)CS (centres undefined)		inconclusive: 28.2 µM [inhibitor, partial curve]
O=c1c2ccccc2cnn1Cc1coc(-c2cccc(Cl)c2)n1	inactive: -0.33%	
CN(C)c1ccc(-c2nnc3n(Cc4ccccc4)c(=O)c4ccccc4n23)cc1		inconclusive: 79.4 µM [inhibitor, partial curve, poor fit]
N#Cc1ccccc1NC(=O)c1ccccc1Oc1ccccc1	inactive: -2.09%	

SMILES	activity change, negative = inhibition	Potency
CCC(=O)C1=C(c2ccc(OC)c(OC)c2)N(C(=O)CC)n2c(CC)nnc2S1		inconclusive: 25.1 µM [inhibitor, partial curve]
O=S(=O)(c1ccc(-c2csc(=Nc3ccc(OC(F)(F)Cl)cc3)n2CCCO)cc1)N1CCCC1		inconclusive: 3.16 µM [inhibitor, full curve, poor fit]
CC(C)CCNC(=O)c1ccc2c(c1)N(Cc1ccccc1F)C(=O)c1ccccc1S2(=O)=O		inconclusive: 14.1 µM [inhibitor, full curve, poor fit]
CC(O)C(NC(=O)c1cc(Cl)ccc1F)C(=O)O (centres undefined)	inactive: -11.4%	
Cc1nc2nc(SCC(=O)NCCc3ccc(Cl)cc3)nn2c(C)c1Cc1ccccc1Cl		active: 35.5 µM
Cc1ccccc1C1=CCN(c2ncc(NC(=O)c3ccc(Cl)cc3)cc2C(=O)O)CC1		inconclusive: 31.6 µM [inhibitor, full curve, poor fit]
COc1cccc2cc(C(=O)Nc3ccccc3Oc3ccccc3)c(=O)oc12	inactive: 5.31%	
C=CCNS(=O)(=O)c1ccc(C(=O)O)cc1	inactive: 2.77%	
COc1ccc(CC(=O)NCCc2csc(-c3ccc(C(F)(F)F)cc3)n2)cc1		inconclusive: 100 µM [inhibitor, partial curve, poor fit]
CCOC(=O)c1[nH]c(C)c(C(=O)NCc2cccc(OC)c2)c1C	inactive: 10.1%	
COc1ccc(C(=O)c2cn(Cc3cccc(C)c3)c3cc4c(cc3c2=O)OCO4)cc1		inconclusive: 20 µM [inhibitor, full curve, poor fit]
Cc1cccc(Cc2c(C)nc3nc(SCc4ccccc4Cl)nn3c2C)c1		inconclusive: 79.4 µM [inhibitor, partial curve, poor fit]
COC(=O)N1CCCc2cc(S(=O)(=O)N3CCN(c4ccccc4)CC3)ccc21		inconclusive: 10 µM [inhibitor, full curve, poor fit]
COc1cc(/C=C(/C#N)C(=O)c2ccccc2)ccc1OC(=O)c1ccc(F)cc1		inconclusive: 56.2 µM [inhibitor, partial curve, poor fit]
Cc1cc(C)cc(C(=O)NC(C)C2CCCO2)c1 (centres undefined)	inactive: -2.98%	
COc1ccc(OC)c(NC(=O)CSC2=Nc3ccccc3C3=NC(CC(=O)NCc4ccc(F)cc4)C(=O)N23)c1 (centres undefined)		inconclusive: 20 µM [inhibitor, partial curve, poor fit]
CCOc1ccccc1NC(=O)CC(c1ccc(F)cc1)N1Cc2ccccc2C1=O (centres undefined)		inconclusive: 25.1 µM [inhibitor, full curve, poor fit]
Cc1cc(N(C)Cc2ccccc2)n2nc(-c3ccc(C(C)(C)C)cc3)nc2n1		active: 35.5 µM
CC1CCCCN1C(=O)c1ccc2c(c1)N(Cc1cccc(Cl)c1)C(=O)c1ccccc1S2=O (centres undefined)		inconclusive: 79.4 µM [inhibitor, partial curve]
Cn1nc(C(=O)Nc2ccc(F)cc2F)c2ccccc2c1=O	inactive: 2.08%	
